Results on 22 molecules are retold here after PMC12136788.

The other results are listed elsewhere or left out.

The chains are these.
T1: UNK ZnF1-3 (human, UniProt Q9C0B0 31-174)
T1 sequence: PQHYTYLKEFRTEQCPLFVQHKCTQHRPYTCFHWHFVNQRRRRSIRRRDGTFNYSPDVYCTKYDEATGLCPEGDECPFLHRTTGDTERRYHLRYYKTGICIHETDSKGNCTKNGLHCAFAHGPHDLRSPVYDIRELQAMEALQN

B1: chr15:93570553:93570554:+_ENSG00000173575_ENST00000394196|hu_hu|motif|central (ssRNA)
RNA: GGGAGUUCUACAGUCCGACGAUCUCUAAGGCCAUAGUGUAUCAUGUCAACCCUUGUUCACGUGCAGGUUUUAGGUGAUGCGGACUCCCUCUUUCUCAACCUGUUAUUUCUACCAACAAUGAAAUCUUUCAAAGCCAGACUCCACAACAGAGGAUUGAGCAUCA
B2: chr2:198351390:198351391:-_ENSG00000144381_ENST00000345042|hu_hu|hu_hu_hu_mus_False|8_58 (ssRNA)
RNA: GGGAGUUCUACAGUCCGACGAUCUCAUUCCCACCCUCCACAGAAAGGCUGCUUCUGAACUCUCAUGUGGUGACACAGCACUAAAAUCCUGAUGCUCACAGAACAGUAGAGAUGCCUCAGUGAUUUAUUAAGUUGAAAGGACACCAACAGAGGAUUGAGCAUCA
B3: chr14:55655841:55655842:-_ENSG00000126787_ENST00000247191|hu_hu|motif|central (ssRNA)
RNA: GGGAGUUCUACAGUCCGACGAUCUUCCUUAUGUCUAUUUUCUUUCUGAGACAGUGAUUUCCUAUGAGCAAUUUUAGUUCGGAUCAUUUCAGUACUUAUAUCCUUCCUGUGUCGACUGGCAAAAUGUGAUGAAGACAUCCUGAGCAACAGAGGAUUGAGCAUCA
B4: chr8:28149726:28149727:+_ENSMUSG00000031483_ENSMUST00000033873|mus_mus|motif|central (ssRNA)
RNA: GGGAGUUCUACAGUCCGACGAUCCUGGAGCUAUUAACCCAAGGUAAUUUAUCUAGUGGUAUCAUUUAUGGAAUAAUUACGGUAACAAGAAUCAUUUCUCAGUUAUAAAGGCUCAUUAAUGCCCUUGGGGCACACUGAAAAAAUCAACAGAGGAUUGAGCAUCA
B5: 58339928_58340048_839_CDS_ENSMUSG00000079104_ENSMUST00000139049|mouse|control|control (ssRNA)
RNA: GGGAGUUCUACAGUCCGACGAUCCUUCACAUCUCCUACUAGUACCAUGCGGUCUACUUCAUUGGCCUUCUUCCGUUCCUUGUGAAUCAAAGCAAAAUCCACAUUCAACCGGUCUGCAAUGGAGGUCACUCUCUUGGCUCCACCCAACAGAGGAUUGAGCAUCA
B6: chr11:61557309:61557310:-_ENSG00000134825_ENST00000537328|hu_hu|FALSE|FALSE (ssRNA)
RNA: GGGAGUUCUACAGUCCGACGAUCGAUGCCAACCCAGAGCAGCAGGAAGAGGACUCCAAAGCCCAUGAAGAGUGAGGCCACUAAGGAGAUGAGGAGCUCUUUAUAGAUAUCACGAGUGUACUUGGUAGAGGUGACCUCGUAAACCAACAGAGGAUUGAGCAUCA
B7: chr5:31194218:31194219:+_ENSMUSG00000029165_ENSMUST00000031057|mus_mus|FALSE|FALSE (ssRNA)
RNA: GGGAGUUCUACAGUCCGACGAUCUAGAUCUACACGAAGUCCAUCCAGAGAAUAGCAGAGAAGCUCUCGGUGGUAAUAAAUACUAUCCAGAGGACUGCUAUGGGUAGAGUAAUUCUCUGAAAAGCGCUGGUCUAGCUGGCUCAGCAACAGAGGAUUGAGCAUCA
B8: chr3:148802587:148802588:-_ENSG00000071794_ENST00000310053|hu_mus|hu_hu_hu_mus_False|58_68 (ssRNA)
RNA: GGGAGUUCUACAGUCCGACGAUCUCCAACAACUUGUCCUCUCAUAGUUCCAAAUAAAACCAAAUCUACUUCUUCAUCACUAGUUAGGAAGUCAUCUGGAGGAAUAAUGUCUUGGAAUUCAAAAUGUGGCAAGAAAGUUGAGUACAACAGAGGAUUGAGCAUCA
B9: chr14:55818557:55818558:+_ENSG00000178974_ENST00000313833|hu_mus|FALSE|FALSE (ssRNA)
RNA: GGGAGUUCUACAGUCCGACGAUCUGCUGGGUGUUCCCUCAGCUGGGGGUGCGCUUGCUGGUCCUGUCCAGAUGACAGAAAGAAGAGCAUCCCGGGAAGAGGCUCCUCAAGGGAGUCUAAAGCCGCCGGCCGGUCUUUCUCUACCAACAGAGGAUUGAGCAUCA
B10: chr4:115894766:115894767:+_ENSMUSG00000028698_ENSMUST00000030464|mus_hu|mus_mus_mus_hu_True|38_108 (ssRNA)
RNA: GGGAGUUCUACAGUCCGACGAUCUUCACACGGAAAUUGUACUUCGGGUUUUCCAACGGCCAGUACCAGUCCGGCCAAACUACCCGAACAGGGUCCUGUCCUCCUCUCCUACAGAACACAACAAAAUGCCCCCGAACUUUCAAGCAACAGAGGAUUGAGCAUCA
B11: chr5:128440902:128440903:+_ENSG00000066583_ENST00000173527|hu_mus|hu_hu_hu_mus_True|8_48 (ssRNA)
RNA: GGGAGUUCUACAGUCCGACGAUCUUGAACGGUGCUGCCAAGUCCUUUGGGGUAUUGUUCCGUUAUGAUAACUGGAAUCCCUAAGAUCCGGGCCCCUUGCAACAGUCUCUGUCCCACACUAAUGAUGUCCCCAAAAUAUUUGAUCAACAGAGGAUUGAGCAUCA
B12: chr1:39494447:39494448:+_ENSG00000168653_ENST00000372967|hu_mus|hu_hu_hu_mus_False|28_98 (ssRNA)
RNA: GGGAGUUCUACAGUCCGACGAUCGCACCGAGCGGCGAUCUUGUAGGGCUGUUCUGCGCUUAGGAACAUAAAGUGCCGGUCCAGGCUGAUGCCCAGCUUUUUCUGUAUGUCCAAGAAAGGCAUGGCUCUGCAGUGCCCUUGUCACAACAGAGGAUUGAGCAUCA
B13: chr12:93870747:93870748:+_ENSG00000198015_ENST00000552217|hu_hu|FALSE|FALSE (ssRNA)
RNA: GGGAGUUCUACAGUCCGACGAUCCUCUACGUUGCAAUUAUAGUCAUCUGGUAGAGGAGAAUACGUAGAUUUAUGACAAACACAAUAUAAAGCUCCAUUUUGGACUGGAAAUAAAUGUUUCAAGAUAGUUCUCUUUGACAUCACCAACAGAGGAUUGAGCAUCA
B14: chr13:100200933:100200934:-_ENSMUSG00000052727_ENSMUST00000064762|mus_mus|FALSE|FALSE (ssRNA)
RNA: GGGAGUUCUACAGUCCGACGAUCAGACGCAAGUGAGGCAUAUAAGGACAUCUCUCUGGGAGGAACAACAUCAGAGAGAGUGUCUUCCUGAAGAGGAGAGGCUAUCUGAGAAGGGGUGUGAGCUGAAGAGGUGGACGGGGAAGCCAACAGAGGAUUGAGCAUCA
B15: chr7:131071926:131071927:+_ENSG00000128585_ENST00000352689|hu_mus|FALSE|FALSE (ssRNA)
RNA: GGGAGUUCUACAGUCCGACGAUCUUUCUUCAAAUUGCAGACAUGAGUUUUCUCAUAUUUUCCAAAUGUAAUAUUCUGAACGAUAGCAGGCCUUUCAAGCUUCAGAAUCAAGUAUUGGGGAGGAUAGUUGCUCUCUGAAGACCACAACAGAGGAUUGAGCAUCA
B16: 51246821_51246941_3074_3pUTR_ENSMUSG00000021395_ENSMUST00000095797|mouse|control|control (ssRNA)
RNA: GGGAGUUCUACAGUCCGACGAUCCAACAUUCAGAUACCAGAACAAUGCAAGCAAUGCAUGCAGAUCUGAACUGUGAGCCUAAGGGAAGUCCAAGGUGGCAGGCCCAGGAGUCUGUCACCAUUAAGGGUGGUGGAAGCCACCAACAACAGAGGAUUGAGCAUCA
B17: chr4:115894766:115894767:+_ENSMUSG00000028698_ENSMUST00000030464|mus_hu|mus_mus_mus_hu_True|8_48 (ssRNA)
RNA: GGGAGUUCUACAGUCCGACGAUCUUCCACACGGAAAUGUACUUCGGGUUUUCCAACGGCCAGUACCAGUCCGGCCAAACUACCCGAUGAGGACAAGCCCCCUCUCUCCUACAGAACACAACAAAAUAACAAAAUACUUUCAAGCAACAGAGGAUUGAGCAUCA
B18: chr7:141438946:141438947:+_ENSG00000106028_ENST00000265304|hu_mus|hu_hu_hu_mus_True|1_88 (ssRNA)
RNA: GGGAGUUCUACAGUCCGACGAUCGACGAAAUACCUGUAACACAGGUGAAACAUGGCUGGCUUCUGUUUUUCUUACAACCUAAUCUUUAGGCUUUUCCUAAAGGAAAGAAAGAAAAGAGAAAAAUGAUAAAUCAAGAACUUCCGCAACAGAGGAUUGAGCAUCA
B19: 105898431_105898551_306_CDS_ENSMUSG00000049354_ENSMUST00000058438|mouse|control|control (ssRNA)
RNA: GGGAGUUCUACAGUCCGACGAUCGCUGCCCAGCGCCAGGCGAAAGCGCUUGUCCGGCCGCACGCUCCAGUUCAUGGCGUACACAGUCCAGGGCGCUUCAUAUUUGUAGAUCUCCUUCCGUUUGCCGUGCAGGGACAUGGUGGCCAACAGAGGAUUGAGCAUCA
B20: chr13:76077047:76077048:-_ENSMUSG00000021589_ENSMUST00000022078|mus_hu|FALSE|FALSE (ssRNA)
RNA: GGGAGUUCUACAGUCCGACGAUCGAAUGAAAACUUGUCAUUAACGUUGUAUUUGAUCACAAUGAUGUCAGCGCCCCCAAUUAGAUUUCGAGAAGUGUACCAAUCACUGUCAAAUAUGUCCCAGACGGGACAGUCGUGGACCACCAACAGAGGAUUGAGCAUCA
B21: 11577162_11577282_1827_3pUTR_ENSG00000205269_ENST00000379426|human|control|control (ssRNA)
RNA: GGGAGUUCUACAGUCCGACGAUCUUGGAUUAUCCUUAACUUCAUAUUCUCUGCAAUGUCUCCUUUGAGUUAGCACAUUAUAAUUGUAUCUGGUGCCAAAAAAAAUCUCAUUAGGAGACCAGUUCAACCCUACUUCCUAUACUCCAACAGAGGAUUGAGCAUCA
B22: chr12:114310842:114310843:+_ENSMUSG00000021143_ENSMUST00000084891|mus_mus|FALSE|FALSE (ssRNA)
RNA: GGGAGUUCUACAGUCCGACGAUCUGUAAGGGAGGUGGCCUUUGUAGUCAGACCAGCAUGCUGGAGCCUUCACGGGCUACAAACAAAUCUCUCUCUCUCUCUCUCUCACACACACACACACACACACACACACACACACACACACAACAGAGGAUUGAGCAUCA

This experiment deals with T1, UNK ZnF1-3. Kind of experiment: nsRBNS (natural sequence RNA bind-n-seq); RBNS binding buffer (assumed for nsRBNS): 25 mM Tris pH 7.5, 150 mM KCl, 3 mM MgCl2, 0.01% Triton X-100, 500 ug/ml BSA, 20 U/ml SUPERase-In, 4 C; UNK is unkempt and MSI1 is Musashi-1; names of the RNAs are library labels; protein concentration not given here; high values mean tight binding.
As for B1, the binding signal came to 0.941 enrichment R.
The figure for B2 is 1.62 enrichment R; for B3 it is 0.869 enrichment R.
Molecule B4 had a binding signal of 0.93 enrichment R.
Next, B5: 0.73 enrichment R.
B6: the binding signal is 2.72 enrichment R.
In the case of B7, the binding signal came out at 1.27 enrichment R.
The molecule B8 registered a binding signal of 1.21 enrichment R.
For the molecule B9, the binding signal is 0.902 enrichment R.
The figure for B10 is 0.821 enrichment R; for B11 it is 0.878 enrichment R.
Next, B12: 0.573 enrichment R; B13: 0.837 enrichment R.
B14 came in with a binding signal of 2.79 enrichment R.
In turn, B15 showed a binding signal of 1.15 enrichment R.
Turning to B16, the binding signal was 0.813 enrichment R.
On to B17, for which the binding signal worked out at 0.89 enrichment R.
As for B18, the binding signal came out at 1 enrichment R.
B19 yielded a binding signal of 1.05 enrichment R.
In turn, B20 gave a binding signal of 0.758 enrichment R.
The molecule B21 returned a binding signal of 1.06 enrichment R.
Molecule B22 returned a binding signal of 1.38 enrichment R.
